From the RNAGym collection of RNA variant scans (doi:10.1093/nar/gkz1192) come the findings set out here.

Read counts are not given, so values of variants with three or more changes are uncertain.

The chains are these.
B1: CPEB3 Ribozyme (parent)
chain: UAACAGGGGGCCACAGCAGAAGCGUUCACGUCGCAGCCCCUGUCAGAUUCUGGUGAAUCUGCGAAUUCUGCUGUAUAUCUC

The variants in the data set derive from B1. Description: self-cleavage, relative activity (ratio to wild type); higher = more cleavage; in vitro, sequencing. In outline: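 After error-prone PCR and barcoding, CPEB3 ribozyme mutant libraries were transcribed with T7 RNA polymerase at 37°C for 5 hours, then given 15 min with DNase I before an EDTA stop, and they cleaved during both steps. Reverse transcription with template switching preceded Illumina sequencing. Relative activity divides a variant's cleaved/total read fraction by the unmutated ribozyme's. At least 5 reads were required per variant, and three batches were averaged.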
As to CAACAGGGGGCCGCAGCAGAAGCGUUCACGUCGCAGCCCCUGUCAGAUUCUGGUGAAUCUGCGAAUUCUGCUGUAUAUCAC [U1C A13G U80A], the self-cleavage amounted to 1.14.

Take CAACAGGGGGCCACGGCAGAAGCGUUCACGUCGCAGCCCCUGUCAGAUUCUGGUGAAUCUGUGAAUUCUGCUGUAUAUCUC [U1C A15G C62U]: the self-cleavage amounted to 0.29. Under CAACAGGGGGCCACCGCAGAAGCGUUCUCGUCGCAGCCCCUGUCAGAUUCUGGUGGAUCCGCGAAUUCUGCUGUAUAUCUC [U1C A15C A28U A56G U60C] stands 0.47; under CAACAGGGGGCCGCAGCAGAAGCGUUCACGUCGCAGCCCCUGUCAGAUUCUGGAGAAUCUGCGAGUUCUGCUGUAUAUCUC [U1C A13G U54A A65G], 0.35; under CAACAGGGGGCCGCAGCAGAAGCGUUCACGUCGCAGCACCUGUCAGAUUCUGGUGAAUCUGCGAAUUCUGCUGUAUACCUC [U1C A13G C38A U78C], 0.31. For CAACAGGGGGCCACGGCAGAAGCGCUCACGUCGCAGCCCCUGUCAGAUUCUGGUGAAUCUGCGAAUUCUGCUGUAUAUUUC [U1C A15G U25C C79U], the self-cleavage stood at 0.07. Under CAACAGGGGGCCUCAGCAGGAGCGUUCACGUCGCAGCCCCUGUCAGAUUCUGGUGAAUCUGCGAAUUAUGCUGUAUAUCUC [U1C A13U A20G C68A] stands 0.19; under CAACAGGGGGCCGCAGCAGAAGCGUUCACGUCGCAGCCUCAGUCAGAUUCUGGUGAAUCUGCGAAUUCCGCUGUAUAUCUC [U1C A13G C39U U41A U69C], 0.05.

In the case of CAACAGGGGGCCGCAGCAGAAGCGUUCAGGUCGCAGCCCCUGACAGAUUCUGGUGAAUCUGCGAAUUCUGCUGUAUAUCUC [U1C A13G C29G U43A], the self-cleavage was 0.09. In the case of CAACAGGGGGCCGCAGCAGAAGCGUUCACGUCGCAGCCCCUGUCAGAUUCUGGUGAAUCUGCGAAUUCUGCUGUAUACCUC [U1C A13G U78C], the self-cleavage is 0.47. Under CAACAGGGGGCCACGGCAGAGGCGUUCACGUCGCAGCCCCUGUCAGGUUCUGGCGAAUCAGUGAAUUCUGCUGUAUAUCUC [U1C A15G A21G A47G U54C U60A C62U] stands 0.04. In the case of CAACAGGGGGCCGCAGCAGAAGCGUCCACGUCGCAGCCCCUGUCAGAUUCUGGUGAAUCUGCGAAUUCUGCUGUAUAUCAC [U1C A13G U26C U80A] it was 0.27; in that of CAACAGGGGGCCACUGCGGAAGCGUUCACGUCGCAGCCCCUGUCAGAUUCUGGUGGAUCUGCGAAUUCUGCUGUAUAUCUC [U1C A15U A18G A56G], 0.53.

As to CAACAGGGGGCCGCAGCAGAAGCGUUCACGUCGCAGCCCCUGUCUGAUUCUGGUGAAUCUGCGAAUUCUGCUGUACAUCUC [U1C A13G A45U U76C], the self-cleavage stood at 0.43.

As to CAACAGGGGGCCACGGCAGAAGCGUUCACGUCGCAGCCCCUGUCAGAUUCUGGUGAAACUGCGAAUCCUGCCGUAUAUCUC [U1C A15G U58A U67C U72C], the self-cleavage amounted to 0.3. For CAACAGGGGGCCGCAGCAGAAGCGUUCACGUCGCAGCCCCUGUCAGAUUCUGGUGAAUCUGCGAAUUCAGCUGUAUAUCUC [U1C A13G U69A], the self-cleavage stood at 0.45. Under CAACAGGGGGCCACGGCAGAAGCGUUCGCGUCGCGGCCCCUGUCAGAUUCUGGUGAAUCUGCGAAUUCUGCUGUAUAUCUC [U1C A15G A28G A35G] stands 0.55; under CAACAGGGGGCCUCAGCAGAAGCGUUCACGUCGCAGCCCCCGUCAGAUUCUGGUGAAUCUGCGAAUUCUGCUGUAUAUCUC [U1C A13U U41C], 0.48. In the case of CAACAGGGGGCCACCGCAGAAGCGUUCACGUCGCAGCCCCCGUCAGAUUCUGGUGAAUCUGCGAAUUCUGCUGUAUACCUC [U1C A15C U41C U78C] it was 0.8. In the case of CAACAGGGGGCCGCAGCAGGAGCGUUCACGUCGCAGCCCCUGUCAGAUUCUGGUGAAUCUGCGAAUUCUGCUGUAUAUCUC [U1C A13G A20G] it was 0.79; in that of CAACAGGGGGCCUCGGCAGAAGCGUUCACGUCGCAGCCCCUGUCAGAUUCUGGUUAACCUGCGAAUUCUGCUGAAUAUCUC [U1C A13U A15G G55U U58C U74A], 0.14. Consider CAACAGGGGGCCACGGCAGAAGCGUUCACGUCGCAGCCCCUGUCAGAUUCUGGUGGAUCUGCGAAUUCUGCUUUAUAUCUC [U1C A15G A56G G73U], for which the self-cleavage came to 0.51. Take CAACAGGGGGCCGCAGCAGAAGCGUUCACGUCGCAGCCCCUGUCAGAUCCUGGUGAAUCUGCGAAUUCUGCUGUAUAUCUC [U1C A13G U49C]: the self-cleavage stood at 0.33. Under CAACAGGGGGCCACUGCAGAAGCGUUCACGUCGCAGCCCCUGUCAGAUUCUGGUGGAUCUGCGAAUCCUGCUGUAUAUCUC [U1C A15U A56G U67C] stands 0.48. For the variant CAACAGGGGGCCGCAGCAGAAGCGUUCCCGUCGCAGCCCCUGUCAGAUUCUGGUGAAUCUGCGGACUCUGCUGUAUAUCUC [U1C A13G A28C A64G U66C], the self-cleavage was determined as 0.06. Consider CAACAGGGGGCCGCAGCAGAAGCGUUCACGUCGCAGCCCCUGUCAGAUUCUGGUGAAUCUGCGAACUCUGCUGUAUAUCUC [U1C A13G U66C], for which the self-cleavage is 0.21.

Regarding CAACAGGGGGCCACGGCAGAAGCGUUCAUGUCGCAGCCCCUGUCAGAUUCUGGUGAAUCUGCGAACUCUGCUGUAUAUCUC [U1C A15G C29U U66C], the self-cleavage was 0.05. As for CAACAGGGGGCCGCAGCAGAAGCGUUCACGUCGCAGCCCCUGUCAGUUUCUGGUGAAUCUGCGAAUUCCGCUGUAUAUCUC [U1C A13G A47U U69C], the self-cleavage is 0.06. On to CAACAGGGGGCCGCAGCAGAAGCGUACACGUCGCAACCCCUGUCAGAUUCUGGUGAAUCUGCGAAUUCUGCUGUAUAUCUC [U1C A13G U26A G36A], for which the self-cleavage came to 0.3. In the case of CAACAGGGGGCCGCAGCAGAAGCGUUCACGUCGCAGCCCAUGUCGGAUUCUGGUGAAUCUGCGAAUUCUGCUGUAUAUCUC [U1C A13G C40A A45G] it was 0.39; in that of CAACAGGGGGCCUCAGCAGAAGCGUUCACGUCGCAGCCCCUGUCGGAUUCUGGUGAAUCUGCGAAUUCUGCUGUAUAUCUC [U1C A13U A45G], 1.06. As for CAACAGGGGGCCUCAGCAGAAGCGCUCACGGCGCAGCCCCUGUCAGAUUCUGGUGAAUCUGCGAAUUCUGCUGUAUAUCUC [U1C A13U U25C U31G], the self-cleavage stood at 0.07. On to CAACAGGGGGCCACGGCAGAAGCGUACACGUCGCAGCCCCUGUCAGAUUCUGGUGGAUCUGCGAAUUCCGCUGUAUAUCCC [U1C A15G U26A A56G U69C U80C], for which the self-cleavage came to 0.12.

Regarding CAACAGGGGGCCACCGCAGAAGCGUUCACGUCGCAGCCCCUGUCAGAUUCUGGUGAAUCUGCGAAUCCUGCUGUAUAUCUC [U1C A15C U67C], the self-cleavage amounted to 0.08.
